Consider 31 molecules from PMC9911399, “Two distinct binding modes provide the RNA-binding protein RbFox with extraordinary sequence specificity”.

B1: AGUCGUA (DNA:RNA)
RNA: GGGAGACCGGAAUUCAGAUUGUCCAGUCGUAUUAAAUCCCGUCGUAGCCACCA
DNA 1: CAATCTGAATTCCGGTCTCCC
DNA 2: TGGTGGCTACGACGGGATT
B2: GUACAUA (DNA:RNA)
RNA: B1 RNA with A25G, G26U, U27A, G29A
DNA 1: CAATCTGAATTCCGGTCTCCC
DNA 2: TGGTGGCTACGACGGGATT
B3: AAGCUUC (DNA:RNA)
RNA: B1 RNA with G26A, U27G, G29U, A31C
DNA 1: CAATCTGAATTCCGGTCTCCC
DNA 2: TGGTGGCTACGACGGGATT
B4: ACCCACG (DNA:RNA)
RNA: B1 RNA with G26C, U27C, G29A, U30C, A31G
DNA 1: CAATCTGAATTCCGGTCTCCC
DNA 2: TGGTGGCTACGACGGGATT
B5: CAGAAAU (DNA:RNA)
RNA: GGGAGACCGGAAUUCAGAUUGUCCCAGAAAUUUAAAUCCCGUCGUAGCCACCA
DNA 1: CAATCTGAATTCCGGTCTCCC
DNA 2: TGGTGGCTACGACGGGATT
B6: CUGGAAA (DNA:RNA)
RNA: B5 RNA with A26U, A28G, U31A
DNA 1: CAATCTGAATTCCGGTCTCCC
DNA 2: TGGTGGCTACGACGGGATT
B7: AACAUGC (DNA:RNA)
RNA: B5 RNA with C25A, G27C, A29U, A30G, U31C
DNA 1: CAATCTGAATTCCGGTCTCCC
DNA 2: TGGTGGCTACGACGGGATT
B8: CAUGUAC (DNA:RNA)
RNA: B5 RNA with G27U, A28G, A29U, U31C
DNA 1: CAATCTGAATTCCGGTCTCCC
DNA 2: TGGTGGCTACGACGGGATT
B9: CCGCUAA (DNA:RNA)
RNA: B5 RNA with A26C, A28C, A29U, U31A
DNA 1: CAATCTGAATTCCGGTCTCCC
DNA 2: TGGTGGCTACGACGGGATT
B10: GGCCUGC (DNA:RNA)
RNA: B1 RNA with A25G, U27C, G29U, U30G, A31C
DNA 1: CAATCTGAATTCCGGTCTCCC
DNA 2: TGGTGGCTACGACGGGATT
B11: UUCGAUU (DNA:RNA)
RNA: B5 RNA with C25U, A26U, G27C, A28G, A30U
DNA 1: CAATCTGAATTCCGGTCTCCC
DNA 2: TGGTGGCTACGACGGGATT
B12: AAGUCAU (DNA:RNA)
RNA: B5 RNA with C25A, A28U, A29C
DNA 1: CAATCTGAATTCCGGTCTCCC
DNA 2: TGGTGGCTACGACGGGATT
B13: UGACGUC (DNA:RNA)
RNA: B1 RNA with A25U, U27A, A31C
DNA 1: CAATCTGAATTCCGGTCTCCC
DNA 2: TGGTGGCTACGACGGGATT
B14: GCCAGGU (DNA:RNA)
RNA: B5 RNA with C25G, A26C, G27C, A29G, A30G
DNA 1: CAATCTGAATTCCGGTCTCCC
DNA 2: TGGTGGCTACGACGGGATT
B15: AGAAUAU (DNA:RNA)
RNA: B5 RNA with C25A, A26G, G27A, A29U
DNA 1: CAATCTGAATTCCGGTCTCCC
DNA 2: TGGTGGCTACGACGGGATT
B16: AAUAAUA (DNA:RNA)
RNA: B1 RNA with G26A, C28A, G29A
DNA 1: CAATCTGAATTCCGGTCTCCC
DNA 2: TGGTGGCTACGACGGGATT
B17: AGGGCGG (DNA:RNA)
RNA: B1 RNA with U27G, C28G, G29C, U30G, A31G
DNA 1: CAATCTGAATTCCGGTCTCCC
DNA 2: TGGTGGCTACGACGGGATT
B18: AGCCUUG (DNA:RNA)
RNA: B1 RNA with U27C, G29U, A31G
DNA 1: CAATCTGAATTCCGGTCTCCC
DNA 2: TGGTGGCTACGACGGGATT
B19: UGCGACC (DNA:RNA)
RNA: B1 RNA with A25U, U27C, C28G, G29A, U30C, A31C
DNA 1: CAATCTGAATTCCGGTCTCCC
DNA 2: TGGTGGCTACGACGGGATT
B20: AGCUGGC (DNA:RNA)
RNA: B1 RNA with U27C, C28U, U30G, A31C
DNA 1: CAATCTGAATTCCGGTCTCCC
DNA 2: TGGTGGCTACGACGGGATT
B21: GUUCACA (DNA:RNA)
RNA: B1 RNA with A25G, G26U, G29A, U30C
DNA 1: CAATCTGAATTCCGGTCTCCC
DNA 2: TGGTGGCTACGACGGGATT
B22: CACCCCC (DNA:RNA)
RNA: B5 RNA with G27C, A28C, A29C, A30C, U31C
DNA 1: CAATCTGAATTCCGGTCTCCC
DNA 2: TGGTGGCTACGACGGGATT
B23: UUGCGUC (DNA:RNA)
RNA: B1 RNA with A25U, G26U, U27G, A31C
DNA 1: CAATCTGAATTCCGGTCTCCC
DNA 2: TGGTGGCTACGACGGGATT
B24: GACAACC (DNA:RNA)
RNA: B5 RNA with C25G, G27C, A30C, U31C
DNA 1: CAATCTGAATTCCGGTCTCCC
DNA 2: TGGTGGCTACGACGGGATT
B25: ACUGAGA (DNA:RNA)
RNA: B1 RNA with G26C, C28G, G29A, U30G
DNA 1: CAATCTGAATTCCGGTCTCCC
DNA 2: TGGTGGCTACGACGGGATT
B26: GCACAUA (DNA:RNA)
RNA: B1 RNA with A25G, G26C, U27A, G29A
DNA 1: CAATCTGAATTCCGGTCTCCC
DNA 2: TGGTGGCTACGACGGGATT
B27: AUGCCGU (DNA:RNA)
RNA: B1 RNA with G26U, U27G, G29C, U30G, A31U
DNA 1: CAATCTGAATTCCGGTCTCCC
DNA 2: TGGTGGCTACGACGGGATT
B28: GUUAGGA (DNA:RNA)
RNA: B1 RNA with A25G, G26U, C28A, U30G
DNA 1: CAATCTGAATTCCGGTCTCCC
DNA 2: TGGTGGCTACGACGGGATT
B29: CCAACGG (DNA:RNA)
RNA: B5 RNA with A26C, G27A, A29C, A30G, U31G
DNA 1: CAATCTGAATTCCGGTCTCCC
DNA 2: TGGTGGCTACGACGGGATT
B30: UGCAUUG (DNA:RNA)
RNA: B1 RNA with A25U, U27C, C28A, G29U, A31G
DNA 1: CAATCTGAATTCCGGTCTCCC
DNA 2: TGGTGGCTACGACGGGATT
B31: UGCUUAA (DNA:RNA)
RNA: B1 RNA with A25U, U27C, C28U, G29U, U30A
DNA 1: CAATCTGAATTCCGGTCTCCC
DNA 2: TGGTGGCTACGACGGGATT

Where a chain is given by its changes, count along the chain named. The list shows a part of the results.

This experiment has as its target T1, RBFOX1 RRM (Homo sapiens, UniProt Q9NWB1 109-208).
T1 sequence: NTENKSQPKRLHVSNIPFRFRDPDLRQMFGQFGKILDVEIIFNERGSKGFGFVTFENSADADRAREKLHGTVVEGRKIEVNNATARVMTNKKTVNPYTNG
The experiment in a line: EMSA; HiTS-Eq, 1 nM pool, 10 min; buffer printed only for the single-RNA assays: 10 mM Tris pH 7.5, 150 mM NaCl, 3.4 mM EDTA, 0.001% NP-40, 30 C. The conditions noted are these: tags: His6 N-terminal (pET28a); label: 5' 32P. In a few lines: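 Purified wild-type or mutant RbFox RRM at increasing concentrations was equilibrated with 1 nM of 5′-radiolabelled RNA carrying 7 randomized nucleotides for 10 min in 50 µL. Unbound RNA was separated by 8% native PAGE and sequenced. Relative association constants came from read-count changes of each RNA species compared with the control reaction, normalised to the cognate motif.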
As to B1, the binding signal was 0.00771 KA relative to UGCAUGU.
With B2, the binding signal is 0.00218 KA relative to UGCAUGU.
With B3 the figure was 0.00771 KA relative to UGCAUGU; with B4, 0.000605 KA relative to UGCAUGU.
For the molecule B5, the binding signal is 0.00172 KA relative to UGCAUGU.
In the case of B6, the binding signal is 0.0219 KA relative to UGCAUGU.
B7: the binding signal was 0.00362 KA relative to UGCAUGU.
B8: the binding signal is 0.00233 KA relative to UGCAUGU.
In the case of B9, the binding signal is 0.00033 KA relative to UGCAUGU.
As for B10, the binding signal was 0.0206 KA relative to UGCAUGU.
Under B11 stands 0.00889 KA relative to UGCAUGU; under B12, 0.00128 KA relative to UGCAUGU; under B13, 0.0179 KA relative to UGCAUGU.
As to B14, the binding signal is 0.0136 KA relative to UGCAUGU.
In the case of B15, the binding signal is 0.00265 KA relative to UGCAUGU.
For B16, the binding signal is 0.000771 KA relative to UGCAUGU.
Turning to B17, the binding signal is 0.0287 KA relative to UGCAUGU.
Consider B18, for which the binding signal was 0.0178 KA relative to UGCAUGU.
With B19 the figure was 0.0118 KA relative to UGCAUGU; with B20, 0.0129 KA relative to UGCAUGU.
Regarding B21, the binding signal is 0.00568 KA relative to UGCAUGU.
On to B22, for which the binding signal was 0.00447 KA relative to UGCAUGU.
Turning to B23, the binding signal was 0.0198 KA relative to UGCAUGU.
Turning to B24, the binding signal was 0.00269 KA relative to UGCAUGU.
In the case of B25, the binding signal was 0.00967 KA relative to UGCAUGU.
With B26, the binding signal is 0.00437 KA relative to UGCAUGU.
With B27, the binding signal is 0.0108 KA relative to UGCAUGU.
With B28 the figure was 0.00313 KA relative to UGCAUGU.
Under B29 stands 0.00496 KA relative to UGCAUGU; under B30, 0.0355 KA relative to UGCAUGU.
With B31 the figure was 0.0138 KA relative to UGCAUGU.
